According to PubChem BioAssay AID2060345 (Molecular Pharmacology Branch, DTP, NCI, 2025):
Not every entry of the source has a single result; some have several. The other results are left out here. The source may hold further records. Values that stand side by side repeat one measurement across runs, samples, wells, individuals or studies. Marks such as (2×) say how often a value occurs here.

Tested on: MALME-3M multicell spheroids, viability
Test: Anticancer human tumor MALME-3M cell line growth inhibition [TAK];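 also: spheroids exposed to drugs for seven days before readout; 100% = DMSO vehicle control viability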
Settings: stronger effect = lower value
Source text: Combinatorial screen of targeted agents with TAK-243 and ipatasertib in multi-cell type tumor spheroids
A high-throughput screen of multi-cell type tumor spheroids was designed to identify active combinations of targeted small molecules and TAK-243 or ipatasertib. Complex spheroids include a stromal component modeled by human endothelial cells (HUVEC) and fibroblasts modeled by human mesenchymal stem cells (MSCs). The concentration ranges selected for each drug and investigational agent were based upon clinically achievable concentrations if the clinical Cmax of the agent was known.
Compounds. The drugs and investigational agents: TAK-243 (785004), ipatasertib (767898), everolimus (733504), selumetinib (741078), bortezomib (756655), trametinib (758246), ixazomib (758254), vemurafenib (761431), dabrafenib (764134), sapanisertib (764658), alpelisib (765974), and copanlisib (816437), were obtained from the National Cancer Institute (NCI) Developmental Therapeutics Program Chemical Repository. The FDA-approved anticancer drug set is available from the NCI Developmental Therapeutics Program. […] The stock solutions were prepared in dimethyl sulfoxide (DMSO, Sigma-Aldrich, St. Louis, MO, cat. D2650) at 800-fold the tested concentration and stored at -70 degrees C prior to their use. All drugs and investigational agents were tested over a range starting from a high concentration at or near the clinical Cmax and decreasing in half-log increments. If the clinical Cmax for an agent had not been determined, the highest concentration tested was 10 microM.
NCI60 Cell Culture. NCI60 cell lines were obtained from the NCI Developmental Therapeutics Program Tumor Repository. […] The optimal seeding densities for each of the cell lines at each time point assessed were determined prior to performing the concentration response studies. […]
For the pre-screen, cell seeding densities were determined from a titration spanning the range from 5,000 to 313 cells per well. […]

Question: For `CC(C)NCC(C(=O)N1CCN(c2ncnc3c2C(C)CC3O)CC1)c1ccc(Cl)cc1` (stereo not drawn), which viability, T/C (compound alone 0.3 µM) is on record?
Answer: Its viability, T/C is 112, 117, 119 (2×), 107, 113, 123, 85.6, 118, 122%.

Question: And the viability, T/C (compound alone 0.949 µM)?
Answer: Its viability, T/C is 96.8, 104 (2×), 107, 96.2, 96.9, 102, 108, 76.1, 103%.

Question: What about the viability, T/C (compound alone 3 µM) of the same compound?
Answer: The viability, T/C was 89.5, 83.7, 98.3, 91.4, 72.5, 86.6, 92.1, 65.8, 89, 90.9%.
